Numbering of substitutions follows the chain as printed; changes in the protein carry UniProt numbers. The list shows a part of the results.
T1: RBFOX1 RRM RbFoxmut (Fox-RRM*) (Homo sapiens, UniProt Q9NWB1 109-208, R118D;E147R;N151S;E152T)
T1 sequence: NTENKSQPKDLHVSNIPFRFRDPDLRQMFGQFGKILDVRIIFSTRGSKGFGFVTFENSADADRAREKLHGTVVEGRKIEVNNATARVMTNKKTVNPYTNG

B1: AUGUUCU (DNA:RNA)
RNA: GGGAGACCGGAAUUCAGAUUGUCCAUGUUCUUUAAAUCCCGUCGUAGCCACCA
DNA 1: CAATCTGAATTCCGGTCTCCC
DNA 2: TGGTGGCTACGACGGGATT
B2: AAUCCAU (DNA:RNA)
RNA: B1 RNA with U26A, G27U, U28C, U29C, C30A
DNA 1: CAATCTGAATTCCGGTCTCCC
DNA 2: TGGTGGCTACGACGGGATT
B3: GGUUAUG (DNA:RNA)
RNA: B1 RNA with A25G, U26G, G27U, U29A, C30U, U31G
DNA 1: CAATCTGAATTCCGGTCTCCC
DNA 2: TGGTGGCTACGACGGGATT
B4: AGCGACC (DNA:RNA)
RNA: B1 RNA with U26G, G27C, U28G, U29A, U31C
DNA 1: CAATCTGAATTCCGGTCTCCC
DNA 2: TGGTGGCTACGACGGGATT
B5: AGUGAUC (DNA:RNA)
RNA: B1 RNA with U26G, G27U, U28G, U29A, C30U, U31C
DNA 1: CAATCTGAATTCCGGTCTCCC
DNA 2: TGGTGGCTACGACGGGATT
B6: AAGGUAC (DNA:RNA)
RNA: B1 RNA with U26A, U28G, C30A, U31C
DNA 1: CAATCTGAATTCCGGTCTCCC
DNA 2: TGGTGGCTACGACGGGATT
B7: UCUACUC (DNA:RNA)
RNA: GGGAGACCGGAAUUCAGAUUGUCCUCUACUCUUAAAUCCCGUCGUAGCCACCA
DNA 1: CAATCTGAATTCCGGTCTCCC
DNA 2: TGGTGGCTACGACGGGATT
B8: UCGGCUU (DNA:RNA)
RNA: B7 RNA with U27G, A28G, C31U
DNA 1: CAATCTGAATTCCGGTCTCCC
DNA 2: TGGTGGCTACGACGGGATT
B9: AUGUCCC (DNA:RNA)
RNA: B1 RNA with U29C, U31C
DNA 1: CAATCTGAATTCCGGTCTCCC
DNA 2: TGGTGGCTACGACGGGATT

target: T1, RBFOX1 RRM RbFoxmut (Fox-RRM*); experiment: EMSA; HiTS-Eq, 1 nM pool, 10 min; buffer printed only for the single-RNA assays: 10 mM Tris pH 7.5, 150 mM NaCl, 3.4 mM EDTA, 0.001% NP-40, 30 C; details: tags: His6 N-terminal (pET28a); label: 5' 32P
How it was run: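 Purified RbFox RRM (wild type or mutant) was equilibrated for 10 min in 50 µL with 1 nM of a 5′-radiolabelled pool of RNA with 7 randomized nucleotides, its flanks annealed to DNA oligonucleotides, across increasing protein concentrations. Free RNA was separated by 8% native PAGE, excised, reverse-transcribed, PCR-barcoded and sequenced on an Illumina HiSeq 2500. Relative association constants came from read-count changes of each variant against the control reaction, normalised to the cognate motif.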

Row | Binder | binding signal
1 | B1 | 0.127 KA relative to UGCAUGU
2 | B2 | 0.074 KA relative to UGCAUGU
3 | B3 | 0.585 KA relative to UGCAUGU
4 | B4 | 0.0631 KA relative to UGCAUGU
5 | B5 | 0.115 KA relative to UGCAUGU
6 | B6 | 0.105 KA relative to UGCAUGU
7 | B7 | 0.0705 KA relative to UGCAUGU
8 | B8 | 0.0855 KA relative to UGCAUGU
9 | B9 | 0.0715 KA relative to UGCAUGU
